IC50 is the fitted dose that halves viability relative to control wells, and lower means more sensitive; a fit beyond the top or the lowest dose is shown as a bound at that dose. AUC is the area under the same curve over the 256-fold range up to the top dose, as a fraction: 1 means no effect, lower means more sensitive. For part of these data: Any top dose called inferred was calculated from the reported fits. For part of these data: Where an entry number is given, a second screen of the drug exists; the two often differ.
Assays:
Assay in all cases: Viability of human cancer cell lines after 72 h of drug (GDSC screen)
Masitinib = compound: Cc1ccc(NC(=O)c2ccc(CN3CCN(C)CC3)cc2)cc1Nc1nc(-c2cccnc2)cs1 [Masitinib]; details: top dose 20 µM
Protocol: (§1)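 Human cancer cell lines in 384-well plates, medium with 10% serum, drug for 72 h over a 256-fold dose range (nine 2-fold or five 4-fold steps up to the top dose). Adherent lines were fixed and stained with the nucleic acid dye Syto60, suspension lines read with resazurin; signal relative to control wells, capped at 0 and 100%. One two-parameter sigmoid per drug and line, fitted in a mixed model over all curves with the slope shared within a line.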

LAQ824 = compound: O=C(/C=C/c1ccc(CN(CCO)CCc2c[nH]c3ccccc23)cc1)NO [LAQ824]; details: top dose 1.024 µM; top dose inferred
Protocol: as §1

HG-5-88-01 = compound: COc1cc(N2CCC(C(N)=O)CC2)ccc1Nc1nc(N)c(Cl)c(Nc2ccccc2S(=O)(=O)C(C)C)n1 [HG-5-88-01]; details: top dose 10 µM; top dose inferred
Protocol: as §1

Elesclomol = compound: CN(NC(=O)CC(=O)NN(C)C(=S)c1ccccc1)C(=S)c1ccccc1 [Elesclomol]; details: top dose 0.2 µM; top dose inferred
Protocol: as §1

VNLG/124 = compound: CCCC(=O)OCc1ccc(OC(=O)/C=C(C)/C=C/C=C(C)/C=C/C2=C(C)CCCC2(C)C)cc1 [VNLG/124]; details: top dose 5.12 µM; top dose inferred
Protocol: as §1

Bleomycin = compound: Cc1c(N)nc([C@H](CC(N)=O)NC[C@H](N)C(N)=O)nc1C(=O)N[C@H](C(=O)N[C@H](C)[C@@H](O)[C@H](C)C(=O)N[C@H](C(=O)NCCc1nc(-c2nc(C(=O)NCCC[S+](C)C)cs2)cs1)[C@@H](C)O)[C@@H](OC1OC(CO)C(O)C(O)C1OC1OC(CO)C(O)C(OC(N)=O)C1O)c1cnc[nH]1 [Bleomycin]
Protocol: as §1

OSI-930 = compound: O=C(Nc1ccc(OC(F)(F)F)cc1)c1sccc1NCc1ccnc2ccccc12 [OSI-930]; details: top dose 10.24 µM
Protocol: as §1

Tamoxifen = compound: CC/C(=C(\c1ccccc1)c1ccc(OCCN(C)C)cc1)c1ccccc1 [Tamoxifen]; details: top dose 5 µM
Protocol: as §1

NSC-87877 = compound: O=S(=O)(O)c1ccc2cc(N=Nc3cc(S(=O)(=O)O)c4cccnc4c3O)ccc2c1 [NSC-87877]; details: top dose 16 µM; top dose inferred
Protocol: as §1

BX-912 = compound: O=C(Nc1cccc(Nc2ncc(Br)c(NCCc3cnc[nH]3)n2)c1)N1CCCC1 [BX-912]; details: top dose 10.24 µM; top dose inferred
Protocol: as §1

[1] = top dose 50 µM, screen: GDSC drug entry 1378, top dose inferred
[2] = top dose 64 µM, screen: GDSC drug entry 190

## HCC2157 (breast, suspension)
Masitinib
  AUC: 0.987
  IC50: > 20 µM
LAQ824
  AUC: 0.327
  IC50: 0.0205 µM
HG-5-88-01
  AUC: 0.945
  IC50: > 10 µM
Elesclomol
  AUC: 0.587
  IC50: 0.022 µM
VNLG/124
  AUC: 0.985
  IC50: > 5.12 µM
Bleomycin; [1]
  AUC: 0.902
  IC50: > 50 µM
Bleomycin; [2]
  AUC: 0.876
  IC50: > 64 µM
OSI-930
  AUC: 0.943
  IC50: > 10.2 µM
Tamoxifen
  AUC: 0.985
  IC50: > 5 µM
NSC-87877
  AUC: 0.945
  IC50: > 16 µM
BX-912
  AUC: 0.981
  IC50: > 10.2 µM

## HCC2998 (large intestine, adherent)
Masitinib
  AUC: 0.942
  IC50: > 20 µM
LAQ824
  AUC: 0.437
  IC50: 0.0433 µM
HG-5-88-01
  AUC: 0.952
  IC50: > 10 µM
Elesclomol
  AUC: 0.84
  IC50: 0.132 µM
VNLG/124
  AUC: 0.984
  IC50: > 5.12 µM
Bleomycin; [1]
  AUC: 0.665
  IC50: 8.87 µM
Bleomycin; [2]
  AUC: 0.034
  IC50: < 0.25 µM
OSI-930
  AUC: 0.979
  IC50: > 10.2 µM
Tamoxifen
  AUC: 0.985
  IC50: > 5 µM
NSC-87877
  AUC: 0.968
  IC50: > 16 µM
BX-912
  AUC: 0.953
  IC50: > 10.2 µM

## HCC-15 (lung squamous cell carcinoma, adherent)
Masitinib
  AUC: 0.928
  IC50: > 20 µM
LAQ824
  AUC: 0.569
  IC50: 0.104 µM
HG-5-88-01
  AUC: 0.903
  IC50: > 10 µM
Elesclomol
  AUC: 0.67
  IC50: 0.0429 µM
VNLG/124
  AUC: 0.979
  IC50: > 5.12 µM
Bleomycin; [1]
  AUC: 0.84
  IC50: 49.4 µM
Bleomycin; [2]
  AUC: 0.72
  IC50: 20.4 µM
OSI-930
  AUC: 0.966
  IC50: > 10.2 µM
Tamoxifen
  AUC: 0.95
  IC50: > 5 µM
NSC-87877
  AUC: 0.982
  IC50: > 16 µM
BX-912
  AUC: 0.925
  IC50: > 10.2 µM

— the supplement of paper PMC4967469
